Here are results for 28 compounds from the antibiotic and cytotoxicity screens of Wong et al. (2023).

The list shows a part of the results.

Assay [1] has as its system HSkMC (human skeletal muscle cells). Put plainly: cytotoxicity call (relative viability < 0.9). Particulars: 10 µM.
Assay [2] relates to HepG2. Kind of assay: cytotoxicity call (relative viability < 0.9). The following applies: 10 µM.
For assay [3], the system named is S. aureus RN4220. Kind of assay: growth inhibition call (relative growth <= 0.2). Particulars: 50 µM.

`C[C@@H]1CN([C@H](C)CO)C(=O)c2cc(NC(=O)Nc3ccc(C(F)(F)F)cc3)ccc2O[C@@H]1CN(C)C(=O)NC1CCCCC1`: the cytotoxicity call in assay [1] and in assay [2] was “active” throughout. Moreover, the growth inhibition call in assay [3] is “inactive”.
`Cn1cnc(S(=O)(=O)N2C[C@@H](O)COC[C@@H]3O[C@@H](CC(=O)NC4CCCC4)CC[C@H]32)c1`: the cytotoxicity call in assay [1] and in assay [2] was “inactive” each time. For the same compound, the growth inhibition call in assay [3] is “inactive”.
`Cl.NC1=NCC2c3ccccc3Cc3ccccc3N12` (centres undefined): the cytotoxicity call in assay [1] and in assay [2] was “inactive” each time. Besides, in assay [3], the growth inhibition call is “inactive”.
Turning to `Cc1cc(-n2c(=O)[nH]c(=O)n(C)c2=O)ccc1Oc1ccc(SC(F)(F)F)cc1`, the cytotoxicity call in assay [1] and in assay [2] was “inactive” throughout. In addition, in assay [3], the growth inhibition call is “inactive”.
Turning to `C[C@@H]1CCCCO[C@@H](CN(C)S(=O)(=O)c2cccs2)[C@@H](C)CN([C@H](C)CO)C(=O)c2cc(NC(=O)NC3CCCCC3)ccc2O1`, the cytotoxicity call in assay [1] and in assay [2] was “inactive” each time. For the same compound, in assay [3], the growth inhibition call is “inactive”.
For the compound `COc1ccsc1C(N)=O`, the cytotoxicity call in assay [1] and in assay [2] was “inactive” each time. The growth inhibition call in assay [3] is “inactive”.
For `COc1oc(C(=O)NC2CCCCC2)c(-c2ccc(Cl)cc2)c1S(=O)(=O)/C=C/c1ccccc1`, the cytotoxicity call in assay [1] and in assay [2] was “inactive” in each case. Moreover, in assay [3], the growth inhibition call was “inactive”.
Take `C[C@@H]1CN([C@@H](C)CO)C(=O)Cc2cc(NC(=O)c3ccncc3)ccc2O[C@H]1CN(C)Cc1ccc(Oc2ccccc2)cc1`: the cytotoxicity call in assay [1] is “inactive”. For the same compound, in assay [2], the cytotoxicity call is “active”. Moreover, in assay [3], the growth inhibition call is “inactive”.
Turning to `COc1ccc(CN(C)C[C@H]2OCCCC[C@H](C)Oc3ccc(NC(=O)c4ccccc4)cc3C(=O)N([C@H](C)CO)C[C@@H]2C)cc1`, the cytotoxicity call in assay [1] and in assay [2] was “inactive” throughout. In addition, the growth inhibition call in assay [3] is “inactive”.
For `CC(=O)OC/C=C(\C)CCC=C(C)C`, the cytotoxicity call in assay [1] and in assay [2] was “inactive” throughout. Also, the growth inhibition call in assay [3] is “inactive”.
On to `Cc1noc(C)c1NC(=O)Nc1ccc2c(c1)C(=O)N([C@@H](C)CO)C[C@H](C)[C@@H](CN(C)C(=O)Nc1cccc3ccccc13)OCCCC[C@@H](C)O2`, for which the cytotoxicity call in assay [1] and in assay [2] was “inactive” throughout. For the same compound, the growth inhibition call in assay [3] is “inactive”.
On to `C[C@@H]1CN([C@H](C)CO)C(=O)c2cccc(NS(=O)(=O)c3ccccc3)c2O[C@H]1CN(C)C(=O)Nc1cccc2ccccc12`, for which the cytotoxicity call in assay [1] and in assay [2] was “inactive” throughout. In assay [3], the growth inhibition call was “inactive”.
As for `COCCOC(=O)N1C(=O)[C@@]2(c3cc(C#CC4(O)CCCCCC4)ccc31)[C@H](c1ccc(OCCO)cc1)N1[C@H](c3ccccc3)[C@H](c3ccccc3)OC(=O)[C@H]1[C@@H]2C(=O)N1CCCCCCC1`, the cytotoxicity call in assay [1] was “inactive”. The cytotoxicity call in assay [2] is “active”. In assay [3], the growth inhibition call is “inactive”.
Consider `C[C@@H]1CN([C@@H](C)CO)C(=O)Cc2cc(NC(=O)Cn3cnnn3)ccc2O[C@H]1CN(C)Cc1ccc2c(c1)OCO2`, for which the cytotoxicity call in assay [1] and in assay [2] was “inactive” throughout. Moreover, the growth inhibition call in assay [3] was “inactive”.
For `C[C@H](CO)N1C[C@H](C)[C@H](CN(C)S(=O)(=O)c2ccccc2F)Oc2cc(C#Cc3cccc(F)c3)ccc2S1(=O)=O`, the cytotoxicity call in assay [1] and in assay [2] was “inactive” in each case. In addition, the growth inhibition call in assay [3] was “inactive”.
For `CCN(CC)C[C@@H](O)CN`, the cytotoxicity call in assay [1] and in assay [2] was “inactive” in each case. For the same compound, the growth inhibition call in assay [3] is “inactive”.
Regarding `C[C@@]1(F)[C@H](O)[C@@H](CO)O[C@H]1n1ccc(N)nc1=O`, the cytotoxicity call in assay [1] and in assay [2] was “inactive” each time. In addition, the growth inhibition call in assay [3] is “inactive”.
Regarding `CCC(CC)c1ccc(O)cc1`, the cytotoxicity call in assay [1] and in assay [2] was “inactive” throughout. For the same compound, the growth inhibition call in assay [3] was “inactive”.
For the compound `C[N+](C)(C)CCCCCCNC(=O)[C@H]1C[C@H]2C(=O)N[C@@H](CCCC[N+](C)(C)C)C(=O)N2[C@H]1c1ccc(O)cc1`, the cytotoxicity call in assay [1] and in assay [2] was “inactive” each time. Moreover, in assay [3], the growth inhibition call was “inactive”.
For the compound `N[C@]12CC[C@](C(=O)O)(CC1)C2`, the cytotoxicity call in assay [1] and in assay [2] was “inactive” each time. Also, the growth inhibition call in assay [3] was “inactive”.
Take `C[C@@H]1CCCCO[C@@H](CN(C)S(=O)(=O)c2ccc(F)cc2)[C@@H](C)CN([C@H](C)CO)C(=O)c2cc(NS(=O)(=O)c3cn(C)cn3)ccc2O1`: the cytotoxicity call in assay [1] and in assay [2] was “inactive” each time. Moreover, in assay [3], the growth inhibition call is “inactive”.
Regarding `C[C@@H]1CN([C@@H](C)CO)C(=O)c2cc(NC(=O)Cc3ccccc3)ccc2O[C@@H](C)CCCCO[C@@H]1CN(C)C(=O)C1CCCCC1`, the cytotoxicity call in assay [1] and in assay [2] was “inactive” in each case. In addition, in assay [3], the growth inhibition call is “inactive”.
For `C[C@H](CO)N1C[C@H](C)[C@H](CN(C)CC2CCCCC2)Oc2ccc(NC(=O)Nc3cccc4ccccc34)cc2C1=O`, the cytotoxicity call in assay [1] and in assay [2] was “inactive” in each case. Besides, the growth inhibition call in assay [3] is “inactive”.
`COc1c(C)cc(-c2cc3c(c(CCc4ccccc4)n2)[Si](C(C)C)(C(C)C)O[C@H]3c2ccccc2)cc1C`: the cytotoxicity call in assay [1] and in assay [2] was “inactive” each time. Also, the growth inhibition call in assay [3] was “active”.
As for `C[C@@H]1CN([C@H](C)CO)C(=O)Cc2cc(NC(=O)Nc3ccc(C(F)(F)F)cc3)ccc2O[C@@H]1CN(C)C(=O)NC1CCCCC1`, the cytotoxicity call in assay [1] and in assay [2] was “active” each time. Further, the growth inhibition call in assay [3] was “inactive”.
Regarding `C[C@@H]1CN([C@@H](C)CO)C(=O)c2cccc(NS(=O)(=O)c3ccc(Cl)cc3)c2O[C@H]1CN(C)Cc1ccc(Cl)c(Cl)c1`, the cytotoxicity call in assay [1] and in assay [2] was “inactive” each time. Also, in assay [3], the growth inhibition call is “inactive”.
Regarding `C[C@@H]1CN([C@H](C)CO)C(=O)c2cc(NC(=O)Nc3ccc4c(c3)OCO4)ccc2O[C@@H]1CN(C)Cc1ccc(Oc2ccccc2)cc1`, the cytotoxicity call in assay [1] and in assay [2] was “active” in each case. Besides, the growth inhibition call in assay [3] is “inactive”.
For the compound `Cc1noc(C)c1S(=O)(=O)N(C)C[C@@H]1Oc2ccc(NC(=O)Cn3cnnn3)cc2C(=O)N([C@@H](C)CO)C[C@@H]1C`, the cytotoxicity call in assay [1] and in assay [2] was “inactive” throughout. Besides, the growth inhibition call in assay [3] is “inactive”.
